17 compounds from the antibiotic and cytotoxicity screens of Wong et al. (2023) can be followed below.

Some of the results follow.

In the assay the test system is S. aureus RN4220. Briefly: growth inhibition call (relative growth <= 0.2). Conditions: 50 µM.
Consider `CC(C)=CCCC1(C)C=Cc2c(O)c3c(c(CC=C(C)C)c2O1)OC12C(=CC4CC1C(C)(C)OC2(CC=C(C)C(=O)O)C4=O)C3=O` (configuration not stated), for which the growth inhibition call was “inactive”. Turning to `CN(C)[C@@H](CN)c1cn(C)c2ccccc12`, the growth inhibition call was “inactive”. The result for `CC(O)CN1CCN(CC(=O)[O-])CCN(CC(=O)[O-])CCN(CC(=O)[O-])CC1.[Gd+3]` (configuration not stated) reads “inactive”; that for `NNc1ccn([C@H]2O[C@@H](CO)[C@@H](O)[C@@H]2O)c(=O)n1`, “inactive”.

For `O=C(O)CNCP(=O)(O)O`, the growth inhibition call was “inactive”. The result for `C[C@@H](N)[C@@H](O)c1ccccc1` reads “inactive”; that for `NC[C@@H](CS(=O)(=O)O)c1ccc(Cl)cc1`, “inactive”. The result for `N#C[C@]1(O)CN2CCC1CC2` reads “inactive”; that for `ClC1C(Cl)C(Cl)C(Cl)C(Cl)C1Cl` (configuration not stated), “inactive”; that for `C[C@@H]1O[C@@H](O[C@@H]2C[C@@H](O)[C@]3(CO)[C@H]4[C@H](O)C[C@]5(C)[C@@H](C6=CC(=O)OC6)CC[C@]5(O)[C@@H]4CC[C@]3(O)C2)[C@H](O)[C@H](O)[C@H]1O`, “inactive”. On to `CN1C[C@H]2CN[C@H]2C1`, for which the growth inhibition call was “inactive”.

With `CN1C(=O)/C(=C/c2cn(CC(=O)N3CCOCC3)c3ccccc23)C(=O)NC1=S`, the growth inhibition call was “inactive”.

Regarding `COC(=O)[C@]1(Cc2ccccc2N=[N+]=[N-])N=C(c2ccc(OCCCO)cc2)O[C@@H]1c1ccccc1N=[N+]=[N-]`, the growth inhibition call is “inactive”. On to `C=CCOC(Cn1ccnc1)c1ccc(Cl)cc1Cl.O=S(=O)(O)O` (configuration not stated), for which the growth inhibition call was “active”. Then `COc1ccc2cc(CCN)c(=O)[nH]c2c1`, with “inactive”; and `CC1=CC(=O)c2c(O)cccc2C1=O`, with “active”. The result for `O=c1[n-]c(=O)n(Cl)c(=O)n1Cl.[Na+]` reads “inactive”.
